The inconclusive results got no clear call from the source; some entries with a clear call stand among them for comparison. For some assays here: Potencies of inconclusive entries are doubtful fits and often do not repeat. Calls of active or inactive are those of the source. Unless noted, the call rests on the fitted dose curve; in most records, active means well fitted curve in the direction sought with a large enough effect in the repeat runs; inconclusive means weak or mixed curves; inactive means no such curve, though single readings can be large; an effect the other way counts as inactive or inconclusive.
Tests used:
[1] = qHTS assay to identify small molecule antagonists of the estrogen receptor alpha (ER-alpha) signaling pathway using the BG1 cell line (AID 743080; calls by dose curve;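 further: BG1 cells stimulated with 17beta-estradiol alongside compound; on the % scale 0 is the no-effect control and ±100 the full control effect; nearly all actives have a fitted effect of over 25% in size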); conditions: BG1Luc4E2 ERE-luciferase antagonist mode, luminescence; activity change, negative = inhibition: at 70.3 µM (top of the series) unless noted
In short: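 Endogenous full-length ER-alpha in BG1-Luc-4E2 cells drives a stably integrated 4×ERE luciferase gene; compounds were tested against 17beta-estradiol over 21.5 h, with luminescence and multiplexed viability fluorescence recorded.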

[2] = qHTS assay to identify small molecule antagonists of the retinoic acid receptor (RAR) signaling pathway (AID 1159552; further: nearly all actives have a fitted effect of over 50% in size; further: potency means the concentration at half of the fitted maximal effect)
In short: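 Retinol at 1 uM final stimulated RARE-luciferase expression in C3RL4 cells exposed to test compounds for 6 hr at 37 C. Reduced luminescence, read 30 min after detection reagent, indicated pathway antagonism.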

[3] = target: Thyrotropin receptor (Homo sapiens) (UniProt P16473); assay: qHTS assay to identify small molecule antagonists of the thyroid stimulating hormone receptor (TSHR) signaling pathway (AID 1259385; calls by dose curve; further: nearly all actives have a fitted effect of over 20% in size; further: potency means the concentration at half of the fitted maximal effect; on activity change, negative = inhibition: on the % scale 0 is the no-effect control and ±100 the full control effect); conditions: TSHR-HEK293 cAMP HTRF, TSH-stimulated antagonist mode; activity change, negative = inhibition: at 92.4 µM (top of the series)
In short: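 TSHR-HEK293 cells were plated and held 18 h at 37C/5% CO2, then given compound plus Ro20-1724 and stimulated with TSH at 1.5 ng/mL final. After 30 min at room temperature, cAMP was detected with cAMP-d2/anti-cAMP-cryptate (1 h) by fluorescence.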

[4] = qHTS assay to identify small molecule antagonists of the estrogen related receptor signaling pathway with the pleiotropic PPARgamma coactivator (PGC) from Tox21 10K library (AID 1224841; call rule not given here; further: on the % scale 0 is the no-effect control and ±100 the full control effect; actives are mostly falling curves and most rising ones were filed inactive; nearly all actives have a fitted effect of over 50% in size)
In short: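 Compound exposure ran 18 hours at 37 C in PGC/ERR cells (2,000/well) that had first rested 6 hours in a 37 C/5% CO2 incubator. Luciferase activity was then detected with One-Glo after a 30-minute room-temperature step.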

[5] = qHTS assay to identify small molecule agonists of H2AX (AID 1224845; active means well fitted activation curve with a large enough effect in the signal ratio in the repeat runs, not every such curve was filed as active; inconclusive means weak or mixed curves; the % refers to the signal ratio; further: potency means the concentration at half of the fitted maximal effect; on activation (H2AX phosphorylation): on the % scale 0 is the no-effect control and ±100 the full control effect); conditions: CHO-K1 phospho-H2AX Ser139 HTRF, 3 h; activation (H2AX phosphorylation): at 154 µM (top of the series) unless noted
In short: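 Wild-type CHO-K1 cells plated overnight, then exposed 3 hr at 37C to compounds at 15 concentrations (0.76% DMSO). Lysed, then HTRF anti-pH2AX(S139)-cryptate/anti-H2AX-d2 detection after 24 hr at room temperature; emissions 665 and 620 nm.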

[6] = A CellTox Green Cytotoxicity Assay to monitor cytotoxicity in HepG2 cells - 40 hour (AID 1224879); further: potency means the concentration at half of the fitted maximal effect; nearly all actives have a fitted effect of over 40% in size
In short: (§1)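 Continuous culture of HepG2 cells with a membrane-impermeant DNA dye; rising fluorescence marks dead cells. Compound exposure lasted up to 40 h at 37 C, with reads every 8 h from 0 h.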

[7] = A CellTox Green Cytotoxicity Assay to monitor cytotoxicity in HepG2 cells - 32 hour (AID 1224883); further: potency means the concentration at half of the fitted maximal effect; nearly all actives have a fitted effect of over 50% in size
In short: as §1

[8] = qHTS assay to identify small molecule agonists of the sonic hedgehog signaling (Shh) pathway - cell viability counter screen (AID 1259366); further: on the % scale 0 is the no-effect control and ±100 the full control effect; nearly all actives have a fitted effect of over 50% in size
In short: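 Cells are plated at 2,000 per well and left 4hr at 37C, 5% CO2 before compound addition. After 23hr of treatment, CellTiter-Fluor reagent is added for 1hr at 37C and fluorescence is measured.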

[9] = target: Acetylcholinesterase (Homo sapiens) (UniProt P22303); assay: Acetylcholinesterase (AChE) small molecule antagonists: fluorescence cell-based qHTS assay (AID 1347398; calls by dose curve); conditions: Potency: AChE activity
In short: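 Thiocholine generated from acetylthiocholine by SH-SY5Y cell AChE is detected with Thiolite Green (Ex/Em 490/520 nm) after 40 min at room temperature, following 30 min compound pretreatment at 37 C.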

[10] = target: Peroxisome proliferator-activated receptor gamma (Homo sapiens) (UniProt P37231); assay: qHTS assay to identify small molecule agonists of the peroxisome proliferator-activated receptor gamma (PPARg) signaling pathway (AID 743094; active means well fitted activation curve with a large enough effect in the signal ratio in the repeat runs, not every such curve was filed as active; inconclusive means weak or mixed curves, or effect the other way; inactive means no such curve, though single readings can be large or run the other way; the % refers to the signal ratio; further: on the % scale 0 is the no-effect control and ±100 the full control effect); conditions: HEK293H PPARg-UAS-bla, beta-lactamase FRET ratio, 17 h; activation: at 57 µM (top of the series) unless noted
In short: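 Stably transfected HEK293H cells (GeneBLAzer PPARg UAS-bla) were incubated with test substances for 17 h at 37C after a 5 h pre-incubation; beta-lactamase activity was then detected by FRET substrate fluorescence.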

[11] = qHTS assay to identify small molecule antagonists of the sonic hedgehog signaling (Shh) pathway - cell viability counter screen (AID 1259367); further: potency means the concentration at half of the fitted maximal effect; nearly all actives have a fitted effect of over 55% in size
In short: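 After a 4 hr settling period, 3T3 Gli1-Luc cells were treated with DMSO-dissolved chemicals and conditioned medium, kept 24 hr at 37C in 5% CO2, and assayed for viability by CellTiter-Fluor fluorescence following 1 hr reagent incubation.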

[12] = qHTS assay to identify small molecule antagonists of the peroxisome proliferator-activated receptor gamma (PPARg) signaling pathway - cell viability counter screen (AID 743194); conditions: PPARg-bla HEK293H viability, CellTiter-Glo luminescence, 17 h; Potency: co-treated with 50 nM rosiglitazone unless noted; activity change, negative = cytotoxicity: at 62.6 µM (top of the series), co-treated with 50 nM rosiglitazone unless noted; further: nearly all actives have a fitted effect of over 55% in size; further: potency means the concentration at half of the fitted maximal effect; on activity change, negative = cytotoxicity: on the % scale 0 is the no-effect control and ±100 the full control effect
In short: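 PPARg-UAS-bla HEK293H cells were plated, rested 5 h at 37 C, then treated with compounds plus rosiglitazone (50 nM final) for 17 h at 37 C; viability was then read by CellTiter-Glo luminescence after 30 min at room temperature.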

[13] = Human pregnane X receptor (PXR) small molecule agonists, qHTS cell viability counter screen (AID 1346977)
In short: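 Cytotoxicity counter screen run in the same wells as the PXR luciferase assay, using PXR-Luc HepG2 cells in charcoal-stripped serum medium. Viability: CellTiter-Fluor fluorescence after 24hr compound treatment.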

[14] = qHTS assay to identify small molecule antagonists of the constitutive androstane receptor (CAR) signaling pathway - cell viability counter screen (AID 1224837); further: potency means the concentration at half of the fitted maximal effect; nearly all actives have a fitted effect of over 45% in size
In short: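 Fluorescence from CellTiter-Fluor served as the viability signal. Human hepatoma HepG2 cells stably bearing hCAR and CYP2B6-2.2kb received compound plus CITCO (50 nM final) for 23 hr.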

[15] = target: Aryl hydrocarbon receptor (Homo sapiens) (UniProt P35869); assay: qHTS assay to identify small molecule that activate the aryl hydrocarbon receptor (AhR) signaling pathway (AID 743085); further: potency means the concentration at half of the fitted maximal effect; nearly all actives have a fitted effect of over 15% in size
In short: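 Compounds were tested in HepG2 hepatocellular carcinoma cells harbouring a stably integrated luciferase gene under control of 20 DREs. Increased reporter signal after 24 h treatment at 37C was taken as AhR activation.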

[16] = qHTS assay to identify small molecule antagonists of the androgen receptor (AR) signaling pathway - cell viability counter screen (AID 743033; further: on the % scale 0 is the no-effect control and ±100 the full control effect; nearly all actives have a fitted effect of over 45% in size)
[17] = qHTS assay to identify small molecule agonists of the peroxisome proliferator-activated receptor delta (PPARd) signaling pathway - cell viability counter screen (AID 743211); conditions: PPARd-bla HEK293H viability, CellTiter-Glo luminescence, 17 h; activity change, negative = cytotoxicity: at 62.6 µM (top of the series); further: potency means the concentration at half of the fitted maximal effect; nearly all actives have a fitted effect of over 55% in size
In short: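 Counter screen for cytotoxicity run in parallel with the PPARd reporter screen. Beta-lactamase reporter HEK293H cells exposed to compounds 17 h; ATP-based CellTiter-Glo luminescence quantified viability.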

[18] = qHTS assay to identify small molecule antagonists of the estrogen related receptor (ERR) signaling pathway from Tox21 library - cell viability counter screen (AID 1224834); further: potency means the concentration at half of the fitted maximal effect; nearly all actives have a fitted effect of over 30% in size
In short: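 Viability readout (CellTiter-Fluor fluorescence, 30 min at 37 C) multiplexed with the ERR assay; cells treated 17.5 h at 37 C with compounds delivered in DMSO.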

[19] = Caspase-3/7 induction in HepG2 cells by small molecules, qHTS cell viability counter screen (AID 1346981); further: potency means the concentration at half of the fitted maximal effect; nearly all actives have a fitted effect of over 30% in size
In short: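 Counter screen for cytotoxicity: HepG2 exposed 16 hr to compounds, then CellTiter-Fluor viability signal (fluorescence, 1 hr reagent incubation).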
Tags describe the fitted curve by direction and shape or compound fluorescence and quenching.

Sequence of UniProt P16473 (P16473 whole entry, looked up): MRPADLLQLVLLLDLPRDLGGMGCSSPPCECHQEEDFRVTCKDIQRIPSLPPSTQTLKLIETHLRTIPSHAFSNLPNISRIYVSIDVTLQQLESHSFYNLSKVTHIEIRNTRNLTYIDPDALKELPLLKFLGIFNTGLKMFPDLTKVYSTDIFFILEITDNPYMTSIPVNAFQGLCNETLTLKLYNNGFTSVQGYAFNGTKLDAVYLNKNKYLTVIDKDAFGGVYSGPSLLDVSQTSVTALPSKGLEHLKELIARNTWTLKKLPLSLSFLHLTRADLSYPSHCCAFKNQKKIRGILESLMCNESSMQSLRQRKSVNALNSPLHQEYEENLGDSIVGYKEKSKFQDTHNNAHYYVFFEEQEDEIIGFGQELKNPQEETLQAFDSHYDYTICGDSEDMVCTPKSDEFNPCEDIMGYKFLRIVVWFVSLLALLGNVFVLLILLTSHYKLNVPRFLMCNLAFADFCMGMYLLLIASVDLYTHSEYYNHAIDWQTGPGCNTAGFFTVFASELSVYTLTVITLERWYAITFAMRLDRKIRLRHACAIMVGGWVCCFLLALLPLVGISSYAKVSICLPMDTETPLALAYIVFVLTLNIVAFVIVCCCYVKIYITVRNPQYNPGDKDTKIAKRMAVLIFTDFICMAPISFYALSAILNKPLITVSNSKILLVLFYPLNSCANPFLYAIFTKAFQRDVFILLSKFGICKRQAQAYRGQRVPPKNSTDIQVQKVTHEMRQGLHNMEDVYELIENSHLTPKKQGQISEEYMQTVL
Sequence of UniProt P37231 (P37231 whole entry, looked up): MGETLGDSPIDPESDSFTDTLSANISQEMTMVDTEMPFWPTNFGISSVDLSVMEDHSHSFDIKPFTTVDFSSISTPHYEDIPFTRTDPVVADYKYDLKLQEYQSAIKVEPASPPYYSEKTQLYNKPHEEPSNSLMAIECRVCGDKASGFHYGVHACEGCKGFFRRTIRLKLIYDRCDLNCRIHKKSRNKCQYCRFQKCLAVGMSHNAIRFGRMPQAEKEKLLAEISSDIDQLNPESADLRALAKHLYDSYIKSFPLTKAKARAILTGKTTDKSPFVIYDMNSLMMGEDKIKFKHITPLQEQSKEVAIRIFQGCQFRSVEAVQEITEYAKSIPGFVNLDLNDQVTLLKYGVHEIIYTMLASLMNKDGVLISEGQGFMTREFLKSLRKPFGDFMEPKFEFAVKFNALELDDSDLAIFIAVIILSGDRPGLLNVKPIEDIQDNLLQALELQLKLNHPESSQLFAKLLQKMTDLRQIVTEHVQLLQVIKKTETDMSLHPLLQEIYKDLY
Sequence of UniProt P22303 (P22303 whole entry, looked up): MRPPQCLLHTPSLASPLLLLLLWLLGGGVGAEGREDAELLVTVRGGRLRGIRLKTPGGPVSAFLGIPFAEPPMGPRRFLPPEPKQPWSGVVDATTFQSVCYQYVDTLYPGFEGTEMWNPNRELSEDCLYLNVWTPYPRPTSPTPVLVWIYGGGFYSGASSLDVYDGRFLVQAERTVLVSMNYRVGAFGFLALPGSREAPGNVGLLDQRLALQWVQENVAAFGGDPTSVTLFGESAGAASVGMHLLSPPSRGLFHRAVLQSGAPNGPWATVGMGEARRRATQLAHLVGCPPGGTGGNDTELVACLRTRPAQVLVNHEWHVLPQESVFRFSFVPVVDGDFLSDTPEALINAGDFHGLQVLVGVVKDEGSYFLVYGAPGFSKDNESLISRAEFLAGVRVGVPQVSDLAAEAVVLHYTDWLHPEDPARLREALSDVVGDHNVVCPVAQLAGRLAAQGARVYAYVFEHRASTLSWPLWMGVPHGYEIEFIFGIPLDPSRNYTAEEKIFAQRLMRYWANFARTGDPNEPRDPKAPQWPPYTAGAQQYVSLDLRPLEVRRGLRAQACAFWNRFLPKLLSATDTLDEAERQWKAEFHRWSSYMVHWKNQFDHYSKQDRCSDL
Sequence of UniProt P35869 (P35869 whole entry, looked up): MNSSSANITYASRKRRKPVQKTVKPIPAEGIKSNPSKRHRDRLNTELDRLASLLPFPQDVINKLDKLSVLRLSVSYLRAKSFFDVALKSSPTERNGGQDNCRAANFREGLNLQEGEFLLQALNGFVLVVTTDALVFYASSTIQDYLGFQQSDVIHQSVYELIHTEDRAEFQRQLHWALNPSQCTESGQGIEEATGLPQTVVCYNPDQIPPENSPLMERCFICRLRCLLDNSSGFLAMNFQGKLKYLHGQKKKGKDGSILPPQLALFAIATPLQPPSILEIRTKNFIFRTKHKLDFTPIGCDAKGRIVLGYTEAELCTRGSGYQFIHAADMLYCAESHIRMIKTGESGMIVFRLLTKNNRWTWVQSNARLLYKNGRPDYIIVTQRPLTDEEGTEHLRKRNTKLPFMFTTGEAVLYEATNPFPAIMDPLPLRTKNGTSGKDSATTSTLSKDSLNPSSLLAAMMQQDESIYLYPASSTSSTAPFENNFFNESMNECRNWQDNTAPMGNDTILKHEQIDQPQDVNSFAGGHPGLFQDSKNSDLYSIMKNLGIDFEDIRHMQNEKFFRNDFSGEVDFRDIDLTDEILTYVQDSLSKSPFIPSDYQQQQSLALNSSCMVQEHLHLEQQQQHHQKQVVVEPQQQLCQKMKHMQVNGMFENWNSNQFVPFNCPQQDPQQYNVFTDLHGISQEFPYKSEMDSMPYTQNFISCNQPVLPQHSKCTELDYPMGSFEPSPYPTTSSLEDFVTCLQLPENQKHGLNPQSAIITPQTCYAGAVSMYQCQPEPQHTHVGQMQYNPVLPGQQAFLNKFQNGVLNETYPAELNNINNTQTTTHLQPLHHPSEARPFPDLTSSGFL

## CCCBr
[1]
  Potency: inactive
[2]
  Potency: inconclusive: 65.7 µM [inhibitor, partial curve, poor fit]
[3]
  Potency: inconclusive: 5.85 µM [falling, single point]

## O=c1[nH]oc2c1CCNC2
[4]
  Potency: inactive
[5]
  Potency: inactive
[6]
  Potency: inconclusive: 10.7 µM [activator, single point]
[7]
  Potency: inconclusive: 10.7 µM [activator, single point]
[8]
  Potency: inactive
[3]
  Potency: inactive
[9]
  Potency: inconclusive: 43.6 µM [inhibitor, partial curve, poor fit]

## O=C(Nc1ccccc1)c1ccccc1I
[10]
  activation: inconclusive: -0.172%
[11]
  Potency: inconclusive: 15.4 µM [cytotoxic, partial curve]

## CS(=O)(=O)NC(=O)c1cc(Oc2ccc(C(F)(F)F)cc2Cl)ccc1[N+](=O)[O-]
[12]
  Potency: inconclusive: 13.3 µM [rising, full curve, poor fit]
[2]
  Potency: inactive

## Oc1ccc(I)cc1
[2]
  Potency: inconclusive: 61.1 µM [inhibitor, partial curve, poor fit]
[8]
  Potency: inactive
[13]
  Potency: inactive

## O=[N+]([O-])c1cccc2c([N+](=O)[O-])cccc12
[2]
  Potency: inconclusive: 77.4 µM [inhibitor, single point]
[14]
  Potency: inconclusive: 68.9 µM [cytotoxic, single point]
[6]
  Potency: inconclusive: 49.2 µM [activator, partial curve]

## CCCSP(=S)(OCC)Oc1ccc(SC)cc1 (configuration not stated)
[15]
  Potency: inconclusive: 13.7 µM [activator, partial curve]

## CCNC(=O)NC(=O)/C(C#N)=N/OC
[12]
  activity change, negative = cytotoxicity: inconclusive: 31.3%
[2]
  Potency: inconclusive: 0.97 µM [inhibitor, partial curve, poor fit]

## CCOc1ccc(N)cc1
[16]
  Potency: inactive
[17]
  Potency: inconclusive: 21.9 µM [cytotoxic, single point]
[2]
  Potency: inconclusive: 21.7 µM [inhibitor, full curve] and inactive
[18]
  Potency: inconclusive: 43.4 µM [cytotoxic, partial curve, poor fit]
[4]
  Potency: inactive
[5]
  Potency: inconclusive: 101 µM [activator]
[19]
  Potency: inconclusive: 27.3 µM [cytotoxic, single point]

## C=CC#N
[1]
  Potency: inactive
[17]
  Potency: inconclusive: 19.5 µM [cytotoxic, partial curve, poor fit]
